Results from patent US20240165129A1, “METHODS OF TREATING PAIN AND DEPRESSION” (priority 2022, published 2024).

Assays:
[1] = tested on: primary cultured mouse cortical neurons; assay: Acidosis-induced neuronal injury, FDA/PI staining; settings: 1 and 10 μM, pH 6.0 for 1.5 h, MK-801 10 μM added, 24 h after acid treatment
[2] = molecular target: T1, heteromeric ASIC1a/2a channels (UniProt P78348+Q62962); settings: pH 6
T1 sequence (P78348 1-528): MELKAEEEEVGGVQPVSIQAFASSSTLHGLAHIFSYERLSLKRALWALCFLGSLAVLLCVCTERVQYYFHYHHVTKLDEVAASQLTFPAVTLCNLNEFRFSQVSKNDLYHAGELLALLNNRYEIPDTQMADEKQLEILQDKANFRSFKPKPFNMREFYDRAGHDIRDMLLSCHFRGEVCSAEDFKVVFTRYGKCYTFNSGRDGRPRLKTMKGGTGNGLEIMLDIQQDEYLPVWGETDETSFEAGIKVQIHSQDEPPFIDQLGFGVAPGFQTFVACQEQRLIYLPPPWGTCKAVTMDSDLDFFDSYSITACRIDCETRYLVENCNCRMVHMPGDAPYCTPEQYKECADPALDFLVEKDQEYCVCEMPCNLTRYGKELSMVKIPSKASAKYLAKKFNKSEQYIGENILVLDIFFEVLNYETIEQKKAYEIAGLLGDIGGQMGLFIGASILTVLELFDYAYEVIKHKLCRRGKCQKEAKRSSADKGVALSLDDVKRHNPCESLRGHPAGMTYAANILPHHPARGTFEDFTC
T1 sequence (Q62962 1-512): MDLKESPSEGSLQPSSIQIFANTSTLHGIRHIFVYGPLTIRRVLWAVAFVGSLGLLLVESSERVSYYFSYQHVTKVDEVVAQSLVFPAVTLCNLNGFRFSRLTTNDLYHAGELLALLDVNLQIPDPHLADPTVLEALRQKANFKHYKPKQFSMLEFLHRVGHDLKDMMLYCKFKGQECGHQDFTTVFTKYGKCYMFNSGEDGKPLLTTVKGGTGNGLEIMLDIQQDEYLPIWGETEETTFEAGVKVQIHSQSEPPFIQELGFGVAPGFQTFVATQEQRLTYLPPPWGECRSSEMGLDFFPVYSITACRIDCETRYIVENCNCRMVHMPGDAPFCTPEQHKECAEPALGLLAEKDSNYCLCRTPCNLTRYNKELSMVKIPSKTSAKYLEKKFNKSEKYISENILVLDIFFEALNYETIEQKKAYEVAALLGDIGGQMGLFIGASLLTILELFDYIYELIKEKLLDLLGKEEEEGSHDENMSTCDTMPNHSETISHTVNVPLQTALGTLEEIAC

[3] = tested on: ASIC currents (ASIC1a-like) in cortical neurons; assay: Patch-clamp recording of ASIC (ASIC1a-like) currents in primary cultured mouse cortical neurons; settings: for effect of analogs on ASIC currents (structure-activity): 10 μM, n=3
mice brain after MCAO = settings: mouse, in vivo

CC(C)CCC[C@@H](C)[C@H]1CC[C@H]2[C@@H]3C[C@@H](O)[C@@]4(O)C[C@@H](O)CC[C@]4(C)[C@H]3CC[C@]12C [Triol, cholestane-3β, 5α, 6β-triol]
cell death (FDA/PI staining) [1]: inhibited the cell death in a concentration-dependent manner
effect on remaining currents after PcTx-1 blockage [2]: inhibited

CC(C)CCC[C@@H](C)[C@H]1CC[C@H]2[C@@H]3C[C@H]4O[C@]45C[C@@H](O)CC[C@]5(C)[C@H]3CC[C@]12C [5β,6β-epoxy-Chol, 5β,6β-epoxycholesterol]
effect of analogs on ASIC currents (structure-activity) [3]: complete loss of the activity

CC(C)CCC[C@@H](C)[C@H]1CC[C@H]2[C@@H]3C[C@@H]4O[C@@]45C[C@@H](O)CC[C@]5(C)[C@H]3CC[C@]12C [5α,6α-epoxy-Chol, 5α,6α-epoxycholesterol]
effect of analogs on ASIC currents (structure-activity) [3]: complete loss of the activity

CC(C)CCC[C@@H](C)[C@H]1CC[C@H]2[C@@H]3CC=C4C[C@@H](O)CC[C@]4(C)[C@H]3CC[C@]12C [cholesterol]
effect of analogs on ASIC currents (structure-activity) [3]: complete loss of the activity

PcTx1: potent and specific inhibitor for homomeric ASIC1a and heteromeric ASIC1a/2b channels
effect of PcTx-1 on ASIC currents in the presence of Triol [3]: no more inhibition
sensitivity of neuronal ASIC currents to PcTx1 blockade [3]: sensitive to PcTx1 blockade
infarct volume (mice brain after MCAO): significantly reduced
